By IC50 is meant the dose at which the fit gives 50% viability; a fit beyond the top or the lowest dose is shown as a bound at that dose. AUC sums up the same curve from the lowest dose to the 256-fold higher top dose; it is 1 without any effect and falls as sensitivity rises. For some of these results: The top dose, if marked as inferred, was derived from the fitted curves, not read from the paper. For some of these results: Where an entry number is given, a second screen of the drug exists; the two often differ.
Tests used:
Test in all cases: Viability of human cancer cell lines after 72 h of drug (GDSC screen)
[1] = compound: C[C@@H](Oc1cc(-c2cnn(C3CCNCC3)c2)cnc1N)c1c(Cl)ccc(F)c1Cl [Crizotinib]; settings: top dose 2 µM
Description: (§1)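 Human cancer cell lines in 384-well plates, medium with 10% serum, drug for 72 h over a 256-fold dose range (nine 2-fold or five 4-fold steps up to the top dose). Adherent lines were fixed and stained with the nucleic acid dye Syto60, suspension lines read with resazurin; signal relative to control wells, capped at 0 and 100%. One two-parameter sigmoid per drug and line, fitted in a mixed model over all curves with the slope shared within a line.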

[2] = compound: NC(=O)c1ncn([C@@H]2O[C@H](CO)[C@@H](O)[C@H]2O)c1N [AICAR]; settings: top dose 2000 µM; top dose inferred
Description: as §1

[3] = compound: O=c1[nH]c2ccccc2n1C1CCN(Cc2ccc(-c3[nH]c4cc5ncnc5cc4nc3-c3ccccc3)cc2)CC1 [AKT inhibitor VIII]; settings: top dose inferred
Description: as §1

[4] = top dose 2.56 µM, screen: GDSC drug entry 171
[5] = top dose 10.24 µM, screen: GDSC drug entry 228

Cell Line | AUC [1] | IC50 [1] | AUC [2] | IC50 [2] | AUC [3, 4] | IC50 [3, 4] | AUC [3, 5] | IC50 [3, 5]
D-283MED (medulloblastoma, adherent) | 0.982 | > 2 µM | 0.922 | > 2000 µM | 0.991 | > 2.56 µM | 0.958 | > 10.2 µM
DMS-114 (small cell lung carcinoma, adherent) | 0.982 | > 2 µM | 0.854 | 1960 µM | 0.985 | > 2.56 µM | 0.944 | > 10.2 µM
EM-2 (chronic myeloid leukaemia, suspension) | 0.721 | 0.58 µM | 0.551 | 175 µM | 0.972 | > 2.56 µM | 0.756 | 3.93 µM
ES4 (Ewing sarcoma, adherent) | 0.953 | > 2 µM | 0.852 | 1920 µM | 0.936 | > 2.56 µM | 0.693 | 2.44 µM
ES8 (Ewing sarcoma, adherent) | 0.891 | > 2 µM | 0.919 | > 2000 µM | 0.985 | > 2.56 µM | 0.76 | 3.36 µM
EW-1 (Ewing sarcoma, semi-adherent) | 0.938 | > 2 µM | 0.885 | 1890 µM | 0.953 | > 2.56 µM | 0.507 | 0.669 µM
EW-16 (Ewing sarcoma, adherent) | 0.915 | > 2 µM | 0.964 | > 2000 µM | 0.893 | > 2.56 µM | 0.835 | 7.14 µM
Farage (B-cell lymphoma, suspension) | 0.992 | > 2 µM | 0.761 | 595 µM | 0.974 | > 2.56 µM | 0.65 | 1.53 µM
GI-1 (glioma, adherent) | 0.888 | > 2 µM | 0.977 | > 2000 µM | 0.904 | > 2.56 µM | 0.927 | > 10.2 µM
GOTO (neuroblastoma, adherent) | 0.96 | > 2 µM | 0.885 | > 2000 µM | 0.984 | > 2.56 µM | 0.937 | > 10.2 µM
GR-ST (lymphoblastic leukaemia, suspension) | 0.93 | > 2 µM | 0.694 | 495 µM | 0.972 | > 2.56 µM | 0.774 | 4.87 µM
GT3TKB (stomach, adherent) | 0.99 | > 2 µM | 0.934 | > 2000 µM | 0.974 | > 2.56 µM | 0.99 | > 10.2 µM
HA7-RCC (kidney, adherent) | 0.98 | > 2 µM | 0.985 | > 2000 µM | 0.886 | > 2.56 µM | 0.905 | > 10.2 µM
HC-1 (hairy cell leukaemia, suspension) | 0.96 | > 2 µM | 0.825 | 1130 µM | 0.956 | > 2.56 µM | 0.653 | 1.67 µM
HSC-39 (stomach, suspension) | 0.99 | > 2 µM | 0.764 | 634 µM | 0.991 | > 2.56 µM | 0.8 | 4.18 µM
IMR-5 (neuroblastoma, adherent) | 0.992 | > 2 µM | 0.846 | 1130 µM | 0.981 | > 2.56 µM | 0.902 | 9.66 µM
IST-SL2 (small cell lung carcinoma, suspension) | 0.956 | > 2 µM | 0.847 | 1450 µM | 0.93 | > 2.56 µM | 0.865 | 8.94 µM
JURL-MK1 (chronic myeloid leukaemia, suspension) | 0.93 | > 2 µM | 0.584 | 212 µM | 0.985 | > 2.56 µM | 0.798 | 4.84 µM
KCL-22 (chronic myeloid leukaemia, suspension) | 0.879 | 1.49 µM | 0.628 | 264 µM | 0.98 | > 2.56 µM | 0.705 | 2.16 µM

Cell Line | AUC [1] | IC50 [1] | AUC [2] | IC50 [2] | AUC [3, 4] | IC50 [3, 4] | AUC [3, 5] | IC50 [3, 5]
KINGS-1 (glioma, adherent) | 0.638 | 0.348 µM | 0.907 | > 2000 µM | 0.935 | > 2.56 µM | 0.951 | > 10.2 µM
KS-1 (glioma, adherent) | 0.863 | > 2 µM | 0.816 | 1470 µM | 0.948 | > 2.56 µM | 0.917 | > 10.2 µM
KY821 (leukaemia, suspension) | 0.982 | > 2 µM | 0.774 | 685 µM | 0.992 | > 2.56 µM | 0.952 | > 10.2 µM
KYM-1 (rhabdomyosarcoma, adherent) | 0.973 | > 2 µM | 0.854 | 1240 µM | 0.984 | > 2.56 µM | 0.991 | > 10.2 µM
LAMA-84 (chronic myeloid leukaemia, suspension) | 0.757 | 0.696 µM | 0.604 | 242 µM | 0.976 | > 2.56 µM | 0.748 | 3.34 µM
LB647-SCLC (small cell lung carcinoma, semi-adherent) | 0.98 | > 2 µM | 0.897 | > 2000 µM | 0.979 | > 2.56 µM | 0.924 | > 10.2 µM
LB771-HNC (head and neck, adherent) | 0.982 | > 2 µM | 0.919 | > 2000 µM | 0.906 | > 2.56 µM | 0.893 | > 10.2 µM
LB1047-RCC (kidney, adherent) | 0.97 | > 2 µM | 0.929 | > 2000 µM | 0.917 | > 2.56 µM | 0.921 | > 10.2 µM
LB2241-RCC (kidney, adherent) | 0.982 | > 2 µM | 0.846 | 1720 µM | 0.974 | > 2.56 µM | 0.982 | > 10.2 µM
LU-139 (small cell lung carcinoma, suspension) | 0.98 | > 2 µM | 0.753 | 838 µM | 0.982 | > 2.56 µM | 0.746 | 4.04 µM
MC116 (B-cell lymphoma, suspension) | 0.992 | > 2 µM | 0.987 | > 2000 µM | 0.987 | > 2.56 µM | 0.731 | 2.3 µM
MEG-01 (chronic myeloid leukaemia, suspension) | 0.785 | 0.801 µM | 0.768 | 707 µM | 0.978 | > 2.56 µM | 0.784 | 4.09 µM
ML-2 (acute myeloid leukaemia, suspension) | 0.98 | > 2 µM | 0.944 | > 2000 µM | 0.973 | > 2.56 µM | 0.601 | 1.17 µM
MOLP-8 (myeloma, suspension) | 0.888 | > 2 µM | 0.757 | 666 µM | 0.936 | > 2.56 µM | 0.675 | 1.92 µM
MONO-MAC-6 (acute myeloid leukaemia, suspension) | 0.94 | > 2 µM | 0.666 | 372 µM | 0.865 | 2.47 µM | 0.379 | 0.291 µM
MPP-89 (mesothelioma, adherent) | 0.936 | > 2 µM | 0.862 | > 2000 µM | 0.932 | > 2.56 µM | 0.981 | > 10.2 µM
NAMALWA (Burkitt lymphoma, suspension) | 0.956 | > 2 µM | 0.916 | > 2000 µM | 0.991 | > 2.56 µM | 0.744 | 2.77 µM
NB6 (neuroblastoma, adherent) | 0.98 | > 2 µM | 0.951 | > 2000 µM | 0.973 | > 2.56 µM | 0.951 | > 10.2 µM
NCI-H211 (small cell lung carcinoma, adherent) | 0.973 | > 2 µM | 0.817 | 1080 µM | 0.924 | > 2.56 µM | 0.825 | 5.91 µM

Cell Line | AUC [1] | IC50 [1] | AUC [2] | IC50 [2] | AUC [3, 4] | IC50 [3, 4] | AUC [3, 5] | IC50 [3, 5]
NCI-H345 (small cell lung carcinoma, suspension) | 0.99 | > 2 µM | 0.95 | > 2000 µM | 0.951 | > 2.56 µM | 0.99 | > 10.2 µM
NCI-H720 (lung carcinoid, suspension) | 0.959 | > 2 µM | 0.818 | 1010 µM | 0.992 | > 2.56 µM | 0.991 | > 10.2 µM
NCI-H747 (large intestine, adherent) | 0.96 | > 2 µM | 0.844 | 1930 µM | 0.922 | > 2.56 µM | 0.594 | 1.23 µM
NCI-H1770 (non-small cell lung carcinoma, suspension) | 0.992 | > 2 µM | 0.736 | 530 µM | 0.968 | > 2.56 µM | 0.912 | > 10.2 µM
NCI-SNU-5 (stomach, suspension) | 0.357 | 0.05 µM | 0.914 | > 2000 µM | 0.989 | > 2.56 µM | 0.987 | > 10.2 µM
NOMO-1 (acute myeloid leukaemia, suspension) | 0.959 | > 2 µM | 0.799 | 1120 µM | 0.982 | > 2.56 µM | 0.701 | 2.56 µM
OCI-AML3 (acute myeloid leukaemia, suspension) | 0.99 | > 2 µM | 0.891 | 1750 µM | 0.973 | > 2.56 µM | 0.689 | 1.98 µM
RL (B-cell lymphoma, suspension) | 0.99 | > 2 µM | 0.84 | 1220 µM | 0.99 | > 2.56 µM | 0.559 | 0.912 µM
SF539 (glioma, adherent) | 0.574 | 0.195 µM | 0.948 | > 2000 µM | 0.982 | > 2.56 µM | 0.954 | > 10.2 µM
SH-4 (melanoma, adherent) | 0.95 | > 2 µM | 0.847 | > 2000 µM | 0.957 | > 2.56 µM | 0.889 | > 10.2 µM
SK-LMS-1 (soft tissue, adherent) | 0.821 | 1.09 µM | 0.839 | 1270 µM | 0.915 | > 2.56 µM | 0.837 | 6.38 µM
SK-MEL-1 (melanoma, suspension) | 0.99 | > 2 µM | 0.98 | > 2000 µM | 0.993 | > 2.56 µM | 0.936 | > 10.2 µM
SK-N-DZ (neuroblastoma, adherent) | 0.97 | > 2 µM | 0.772 | 765 µM | 0.986 | > 2.56 µM | 0.988 | > 10.2 µM
SR (lymphoid neoplasm, suspension) | 0.513 | 0.135 µM | 0.647 | 304 µM | 0.921 | > 2.56 µM | 0.768 | 3.47 µM
ST486 (Burkitt lymphoma, suspension) | 0.872 | 1.53 µM | 0.777 | 711 µM | 0.981 | > 2.56 µM | 0.717 | 2.41 µM
SW684 (fibrosarcoma, adherent) | 0.982 | > 2 µM | 0.776 | 1200 µM | 0.971 | > 2.56 µM | 0.978 | > 10.2 µM
SW954 (urogenital system, adherent) | 0.98 | > 2 µM | 0.56 | 182 µM | 0.907 | > 2.56 µM | 0.72 | 2.72 µM
VA-ES-BJ (soft tissue, adherent) | 0.956 | > 2 µM | 0.8 | 1030 µM | 0.935 | > 2.56 µM | 0.946 | > 10.2 µM

— the supplement of paper PMC4967469
